Measured values taken from patent publication US11542311B2, “Fusion protein, preparation method therefor and application thereof in preparing ophthalmic disease treatment, anti-inflammation and anti-tumor medicament” (JIANGSU RONGTAI BIOTECH CO., LTD., priority 2017, dated 2023).

What was measured:
[1] = test system: gastric cancer cell MGC-803; experiment: MTT assay, proliferation of gastric cancer cell MGC-803; type: cell-based; conditions: 48 h
Method: (§1) The MTT assay was used to detect the inhibitory effect of the integrin blocker fusion protein obtained in Example 1 on the proliferation of various tumor cells, including melanoma cell B16F10, gastric cancer cell MGC-803, lung cancer cell A549, liver cancer cell Hep-G2, breast cancer cell MDA-MB-231, colon cancer cell HCT-116, human glioma U87, and cervical cancer cell Hela.
(§2) The tumor cells were cultured in a 5% CO2 incubator at 37° C. to a density of 90% or more, and collected by trypsinization. The cells were resuspended in the culture liquid and counted under a microscope. The cell concentration was adjusted to 3.0×10^4 cells/mL. The cell suspension was inoculated into a 96-well plate, 100 μL per well, and cultured overnight in a 5% CO2 incubator at 37° C. The fusion proteins I, II, and the positive drug Taxol were diluted with the culture liquid to respective predetermined concentrations. After the cells were fully adhered, each dilution was added to a 96-well plate, 100 μL per well, respectively. The integrin blocker fusion proteins I and II were added as an administration group, Taxol was used as a positive control group, and the culture liquid without any drug was used as a blank control group, and incubated in an 5% CO2 incubator at 37° C. for 48 hours. 20 μL of 5 mg/mL MTT was added to each well of a 96-well plate, and incubation was continued for 4 hours. The medium was aspirated and 100 μL of DMSO per well were added to dissolve. The absorbance was measured at 570 nm with a microplate reader with a reference wavelength of 630 nm, and the proliferation inhibition (PI) was calculated. The formula is as follows: […]
(§3) where Ntest is the OD value of the test group and Ncontrol is the OD value of the blank control group.
(§4) The test was repeated 5 times independently. The results obtained from the test were calculated as mean±SD, and statistical t-test was performed. P<0.05 was considered as significant difference, and P<0.01 was considered as an extremely significant difference.

[2] = test system: cervical cancer cell Hela; experiment: MTT assay, proliferation of cervical cancer cell Hela; type: cell-based; conditions: 48 h
Method: as §1, §2, §3, §4

[3] = test system: iris neovascularization in rabbits; experiment: Iris neovascularization in rabbits; type: in vivo; conditions: rabbit NVI model; 128 μg intravitreal once every 7 days for 2 weeks; third week
[4] = test system: lung cancer cell A549; experiment: MTT assay, proliferation of lung cancer cell A549; type: cell-based; conditions: 48 h
Method: as §1, §2, §3, §4

[5] = test system: xylene-induced ear swelling in mice; experiment: Xylene-induced ear swelling in mice; type: in vivo, Kunming mice; conditions: for PI (%): ear swelling, mice; for Swelling degree: mouse ear, 2 h after xylene
Method: 80 Kunming mice were divided into 8 groups with 10 mice for each group and numbered. A physiological saline group was used as a blank control group, an aspirin group (200 mg/kg) was used as a positive control group, and fusion proteins I and II at high, medium and low doses (128, 32, 8 mg/kg) was used as the experimental groups. Mice were administered once by injection every 5 days. The blank control group was given an equal volume of physiological saline. On the fifth day after the administration, 0.05 mL of xylene was applied to both sides of the right ears of the mice to induce inflammation, and the left ears were not applied and were normal ears. After 2 h, the mice were sacrificed by dislocation, and the ears were cut along the auricle. Ear pieces were taken with a puncher and weighed, and the swelling degree and swelling rate were calculated. Swelling degree=right ear piece weight-left ear piece weight, swelling rate=(swelling degree/left ear piece weight)×100%.

[6] = test system: tampon granuloma in rat; experiment: Subacute inflammation of tampon granuloma in rat; conditions: granuloma, 64 mg/kg by injection every 5 days, day 7
[7] = test system: neovascularization in premature rat retinopathy model; experiment: Neovascularization in premature rat retinopathy model (oxygen-induced); type: in vivo; conditions: neonatal rat, 100 μg intravitreal day 7, day 14
[8] = test system: breast cancer cell MDA-MB-231; experiment: MTT assay, proliferation of breast cancer cell MDA-MB-231; type: cell-based; conditions: 48 h
Method: as §1, §2, §3, §4

B1: Protein II: Fc fusion protein Fc-IL4DM-HM3: IgG1-Fc, IL-4 and HM-3 joined by rigid (R) linker; SEQ ID NO: 2 (protein)
chain: [gap - human IgG1 Fc]AEAAAKEAAAKEAAAKEAAAKAHKCDITLQEIIKTLNSLTEQKTLCTELTVTDIFAASKNTTEKETFCRAATVLRQFYSHHEKDTRCLGATAQQFHRHKQLIRFLKRLDRNLWGLAGLNSCPVKEANQSTLENFLERLKTIMDEKDSKCSSAEAAAKEAAAKEAAAKEAAAKAIVRRADRAAVPGGGGRGD
A570 nm/A630 nm ([1]; 1 μg/mL): 0.8821 ± 0.0306 | PI (%) ([1]; 1 μg/mL): 7.66% | A570 nm/A630 nm ([1]; 2 μg/mL): 0.7852 ± 0.0125 | PI (%) ([1]; 2 μg/mL): 17.81% | A570 nm/A630 nm ([1]; 4 μg/mL): 0.7049 ± 0.0323 | PI (%) ([1]; 4 μg/mL): 26.21% | A570 nm/A630 nm ([1]; 8 μg/mL): 0.7421 ± 0.0460 | PI (%) ([1]; 8 μg/mL): 22.32% | A570 nm/A630 nm ([1]; 16 μg/mL): 0.6342 ± 0.0302 | PI (%) ([1]; 16 μg/mL): 33.61% | A570 nm/A630 nm ([1]; 32 μg/mL): 0.4523 ± 0.0271 | PI (%) ([1]; 32 μg/mL): 52.65% | A570 nm/A630 nm ([1]; 64 μg/mL): 0.3796 ± 0.0133 | PI (%) ([1]; 64 μg/mL): 60.26% | A570 nm/A630 nm ([1]; 128 μg/mL): 0.2276 ± 0.0511 | PI (%) ([1]; 128 μg/mL): 76.18% | A570 nm/A630 nm ([1]; 256 μg/mL): 0.1112 ± 0.0115 | PI (%) ([1]; 256 μg/mL): 88.36% | A570 nm/A630 nm ([2]; 1 μg/mL): 1.1066 ± 0.0282 | PI (%) ([2]; 1 μg/mL): 13.47% | A570 nm/A630 nm ([2]; 2 μg/mL): 1.0001 ± 0.0162 | PI (%) ([2]; 2 μg/mL): 21.72% | A570 nm/A630 nm ([2]; 4 μg/mL): 0.9368 ± 0.0835 | PI (%) ([2]; 4 μg/mL): 26.74% | A570 nm/A630 nm ([2]; 8 μg/mL): 0.9812 ± 0.0179 | PI (%) ([2]; 8 μg/mL): 23.27% | A570 nm/A630 nm ([2]; 16 μg/mL): 0.8276 ± 0.0395 | PI (%) ([2]; 16 μg/mL): 35.28% | A570 nm/A630 nm ([2]; 32 μg/mL): 0.7018 ± 0.0133 | PI (%) ([2]; 32 μg/mL): 45.12% | A570 nm/A630 nm ([2]; 64 μg/mL): 0.5845 ± 0.0499 | PI (%) ([2]; 64 μg/mL): 54.29% | A570 nm/A630 nm ([2]; 128 μg/mL): 0.3792 ± 0.0213 | PI (%) ([2]; 128 μg/mL): 70.35% | A570 nm/A630 nm ([2]; 256 μg/mL): 0.1456 ± 0.0845 | PI (%) ([2]; 256 μg/mL): 88.61% | iris neovascularization (optical and electron microscope) [3]: could inhibit neovascularization and regress the formed blood vessels | A570 nm/A630 nm ([4]; 1 μg/mL): 0.6215 ± 0.0196 | PI (%) ([4]; 1 μg/mL): 7.86% | A570 nm/A630 nm ([4]; 2 μg/mL): 0.6051 ± 0.0125 | PI (%) ([4]; 2 μg/mL): 10.29% | A570 nm/A630 nm ([4]; 4 μg/mL): 0.5833 ± 0.0339 | PI (%) ([4]; 4 μg/mL): 13.52% | A570 nm/A630 nm ([4]; 8 μg/mL): 0.5516 ± 0.0313 | PI (%) ([4]; 8 μg/mL): 18.22% | A570 nm/A630 nm ([4]; 16 μg/mL): 0.5067 ± 0.0241 | PI (%) ([4]; 16 μg/mL): 24.88% | A570 nm/A630 nm ([4]; 32 μg/mL): 0.4698 ± 0.0178 | PI (%) ([4]; 32 μg/mL): 30.35% | A570 nm/A630 nm ([4]; 64 μg/mL): 0.4259 ± 0.0336 | PI (%) ([4]; 64 μg/mL): 36.86% | A570 nm/A630 nm ([4]; 128 μg/mL): 0.3509 ± 0.0116 | PI (%) ([4]; 128 μg/mL): 47.98% | A570 nm/A630 nm ([4]; 256 μg/mL): 0.2775 ± 0.0267 | PI (%) ([4]; 256 μg/mL): 58.86% | PI (%) ([5]; 8 mg/kg): 11.11% | PI (%) ([5]; 32 mg/kg): 24.77% | PI (%) ([5]; 128 mg/kg): 41.59% | Swelling degree ([5]; 8 mg/kg): 5.92 ± 0.15 mg | Swelling degree ([5]; 32 mg/kg): 5.01 ± 0.84 mg | Swelling degree ([5]; 128 mg/kg): 3.89 ± 0.39 mg | PI (%) [6]: 17.39% | Nucleus number of vascular endothelial cells [7]: 7.333 ± 1.263 | Nucleus number of vascular endothelial cells ([7]; listed as fusion protein II): 7.333±1.263 | A570 nm/A630 nm ([8]; 1 μg/mL): 0.8213 ± 0.0202 | PI (%) ([8]; 1 μg/mL): 4.84% | A570 nm/A630 nm ([8]; 2 μg/mL): 0.8008 ± 0.0199 | PI (%) ([8]; 2 μg/mL): 7.22% | A570 nm/A630 nm ([8]; 4 μg/mL): 0.7805 ± 0.0430 | PI (%) ([8]; 4 μg/mL): 9.57% | A570 nm/A630 nm ([8]; 8 μg/mL): 0.7219 ± 0.0333 | PI (%) ([8]; 8 μg/mL): 16.36% | A570 nm/A630 nm ([8]; 16 μg/mL): 0.6779 ± 0.0130 | PI (%) ([8]; 16 μg/mL): 21.46% | A570 nm/A630 nm ([8]; 32 μg/mL): 0.6186 ± 0.0160 | PI (%) ([8]; 32 μg/mL): 28.33% | A570 nm/A630 nm ([8]; 64 μg/mL): 0.5555 ± 0.0331 | PI (%) ([8]; 64 μg/mL): 35.70% | A570 nm/A630 nm ([8]; 128 μg/mL): 0.5011 ± 0.0275 | PI (%) ([8]; 128 μg/mL): 41.94% | A570 nm/A630 nm ([8]; 256 μg/mL): 0.4476 ± 0.0282 | PI (%) ([8]; 256 μg/mL): 48.06%
